{"source": "paper PMC4336329", "about": "(PLoS ONE, 2015)", "note": "Among all 310,000 compounds or so, about 2,200 (0.71%) showed an effect of 50% or more. Effects have a minus sign here. The list shows a part of the results."}
{"biological_target": "human ether-à-go-go-related gene (hERG) potassium channel (human, UniProt Q12809)", "sequence (Q12809 whole entry, looked up)": "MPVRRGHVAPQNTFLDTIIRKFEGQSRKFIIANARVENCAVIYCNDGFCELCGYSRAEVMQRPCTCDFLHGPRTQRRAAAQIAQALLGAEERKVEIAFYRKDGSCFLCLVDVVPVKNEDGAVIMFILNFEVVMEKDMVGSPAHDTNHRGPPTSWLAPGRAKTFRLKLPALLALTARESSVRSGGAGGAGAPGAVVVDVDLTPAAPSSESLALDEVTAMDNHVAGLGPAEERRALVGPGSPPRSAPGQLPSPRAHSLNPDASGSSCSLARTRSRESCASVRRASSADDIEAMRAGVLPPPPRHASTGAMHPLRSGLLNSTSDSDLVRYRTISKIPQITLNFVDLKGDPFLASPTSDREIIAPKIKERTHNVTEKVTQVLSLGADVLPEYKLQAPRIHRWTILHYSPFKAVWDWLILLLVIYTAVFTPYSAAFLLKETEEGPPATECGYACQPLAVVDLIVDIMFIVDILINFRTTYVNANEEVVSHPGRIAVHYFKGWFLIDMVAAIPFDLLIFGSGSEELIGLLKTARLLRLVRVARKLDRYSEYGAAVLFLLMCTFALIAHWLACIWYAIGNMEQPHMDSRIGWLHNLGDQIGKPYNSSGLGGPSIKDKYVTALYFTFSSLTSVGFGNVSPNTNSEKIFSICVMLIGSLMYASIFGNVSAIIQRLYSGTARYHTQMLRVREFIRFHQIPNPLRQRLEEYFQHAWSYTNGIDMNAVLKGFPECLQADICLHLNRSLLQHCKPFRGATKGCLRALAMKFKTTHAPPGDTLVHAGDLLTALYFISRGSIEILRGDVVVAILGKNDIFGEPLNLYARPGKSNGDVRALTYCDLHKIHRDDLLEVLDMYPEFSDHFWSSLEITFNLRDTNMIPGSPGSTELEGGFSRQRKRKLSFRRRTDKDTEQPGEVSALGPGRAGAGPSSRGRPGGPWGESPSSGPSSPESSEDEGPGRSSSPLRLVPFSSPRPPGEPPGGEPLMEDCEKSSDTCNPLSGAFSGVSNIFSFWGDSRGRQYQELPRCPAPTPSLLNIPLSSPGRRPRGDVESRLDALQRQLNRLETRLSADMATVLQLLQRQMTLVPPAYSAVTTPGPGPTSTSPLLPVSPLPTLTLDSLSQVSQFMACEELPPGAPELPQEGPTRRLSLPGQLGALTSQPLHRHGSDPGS", "assay": "primary screen, population patch clamp on CHO cells stably expressing hERG", "units": {"hERG current change (%, negative = inhibition) at 1uM": "%"}}
{"smiles": "O=c1[nH]c(C2CCCN(S(=O)(=O)c3cccc(Cl)c3)C2)nc2c1nnn2Cc1ccc2c(c1)OCCO2", "note": "(stereo not drawn)", "hERG current change (%, negative = inhibition) at 1uM": 15.9}
{"smiles": "FCCCOc1ccc(-c2ccnc3ncnn23)cc1", "hERG current change (%, negative = inhibition) at 1uM": 14.7}
{"smiles": "Cc1cc2c(=O)n(CC(=O)NCC(=O)N3CCN(Cc4ccccc4)CC3)cnc2s1", "hERG current change (%, negative = inhibition) at 1uM": 14.1}
{"smiles": "COc1cccc(-c2ccc(NC(=O)C3CCCN(Cc4cnn(C)c4)C3)cc2)c1", "note": "(stereo not drawn)", "hERG current change (%, negative = inhibition) at 1uM": -0.218}
{"smiles": "O=C(CSc1nncs1)NC(=O)NCc1ccccc1", "hERG current change (%, negative = inhibition) at 1uM": 11.1}
{"smiles": "O=C(CCN1C(=O)C2C3C=CC(C3)C2C1=O)Nc1ccccn1", "note": "(stereo not drawn)", "hERG current change (%, negative = inhibition) at 1uM": 5.49}
{"smiles": "COc1cc(/C=C/C(=O)NC2CCCCC2)cc(OC)c1OC", "hERG current change (%, negative = inhibition) at 1uM": 11.9}
{"smiles": "COC(=O)c1ccc(-c2noc(CN(C)CC3CCCCO3)n2)cc1", "note": "(stereo not drawn)", "hERG current change (%, negative = inhibition) at 1uM": 26.3}
{"smiles": "Cc1cccc(N2CCN(C(=O)c3ccccc3OCc3c(C)noc3C)CC2)c1C", "hERG current change (%, negative = inhibition) at 1uM": 6.54}
{"smiles": "Cc1nn(Cc2ccc(Cl)cc2)c(C)c1NC(=O)/C=C/c1cnn(C)c1", "hERG current change (%, negative = inhibition) at 1uM": 10}
{"smiles": "CCN1CN(CCc2ccccc2)CNC1=S", "hERG current change (%, negative = inhibition) at 1uM": 9.7}
{"smiles": "Cc1cc(C)c(-n2c(C)cc(/C=C3/NC(=O)NC3=O)c2C)c(C)c1", "hERG current change (%, negative = inhibition) at 1uM": -1.75}
{"smiles": "CCOc1ccc(CSc2nc(C)cc(COC)c2C#N)cc1OCC", "hERG current change (%, negative = inhibition) at 1uM": 12.2}
{"smiles": "CN(CC(=O)Nc1ccncc1)S(=O)(=O)c1ccc(Br)cc1", "hERG current change (%, negative = inhibition) at 1uM": -0.533}
{"smiles": "COc1ccc(N2C(=O)CSC(c3ccccc3)C2=O)cc1", "note": "(stereo not drawn)", "hERG current change (%, negative = inhibition) at 1uM": 21.4}
{"smiles": "COCC(=O)N1CCC(Oc2ccc(C(=O)N(C)Cc3nccs3)cc2)CC1", "hERG current change (%, negative = inhibition) at 1uM": 9.32}
{"smiles": "O=C(NCCCc1ccccc1)C1CCN(c2nnc(-n3cccc3)s2)CC1", "hERG current change (%, negative = inhibition) at 1uM": 4.33}
{"smiles": "CC(=O)Nc1ccc(S(=O)(=O)N2CCN(C(=O)c3ncoc3-c3ccc(C)cc3)CC2)cc1", "hERG current change (%, negative = inhibition) at 1uM": 10.9}
{"smiles": "Cc1ccc(NC(=O)C(C)c2cccc(C(=O)c3ccccc3)c2)cc1O", "note": "(stereo not drawn)", "hERG current change (%, negative = inhibition) at 1uM": -7.06}
{"smiles": "Cc1ccc(/C=N/NC(=O)CN2CCN(Cc3ccccc3Cl)CC2)o1", "hERG current change (%, negative = inhibition) at 1uM": 0.392}
{"smiles": "O=C(NCCN1CCN(C(=O)c2ccc(F)cc2)CC1)C(=O)NCc1ccccc1", "hERG current change (%, negative = inhibition) at 1uM": -75.1}
{"smiles": "OCC1(Cc2ccccc2C(F)(F)F)CCN(Cc2ccccc2)CC1", "hERG current change (%, negative = inhibition) at 1uM": 3.01}
{"smiles": "O=C1C=C(c2cc(C(F)(F)F)cc(C(F)(F)F)c2)C[C@@H](c2ccc(Cl)cc2)C1", "hERG current change (%, negative = inhibition) at 1uM": 11}
{"smiles": "Cl.Oc1ccc(Cl)cc1CNCc1ccc(Cl)nc1", "hERG current change (%, negative = inhibition) at 1uM": 6.71}
{"smiles": "O=C(Nc1ccncc1)Nc1ccccc1Cl", "hERG current change (%, negative = inhibition) at 1uM": 7.97}
{"smiles": "Cc1cc(C)n2nc(C(=O)OC(C)C(=O)c3cc(C)c(C)cc3C)nc2n1", "note": "(stereo not drawn)", "hERG current change (%, negative = inhibition) at 1uM": -1.08}
{"smiles": "CC(=O)NC(=O)c1ccc(-c2ccc(Cl)cc2)o1", "hERG current change (%, negative = inhibition) at 1uM": 9.38}
{"smiles": "CCOC(=O)C1=C(N)c2ccccc2CC1C(C)C", "note": "(stereo not drawn)", "hERG current change (%, negative = inhibition) at 1uM": 5.94}
{"smiles": "CCCCc1nc2cc(C(=O)NCc3ccccn3)ccc2o1", "hERG current change (%, negative = inhibition) at 1uM": 19.9}
{"smiles": "CC1CCCC(NC(=O)CCC(=O)c2ccc(F)cc2)C1C", "note": "(stereo not drawn)", "hERG current change (%, negative = inhibition) at 1uM": 7.59}
{"smiles": "Cc1ccc(C)c(-n2c(SCC(=O)Nc3nnc(C)s3)nnc2-c2ccoc2C)c1", "hERG current change (%, negative = inhibition) at 1uM": 10.1}
{"smiles": "CCOc1ccc(C(=O)Nc2nnc(SCC(=O)NCC3CCCO3)s2)cc1OCC", "note": "(stereo not drawn)", "hERG current change (%, negative = inhibition) at 1uM": 3.82}
{"smiles": "O=C(Cn1cnc2c(cnn2-c2ccccc2)c1=O)Nc1cc(S(=O)(=O)N2CCOCC2)ccc1Cl", "hERG current change (%, negative = inhibition) at 1uM": -8.68}
{"smiles": "CCOC(=O)c1sc(=S)n(-c2cc(OC)ccc2OC)c1N", "hERG current change (%, negative = inhibition) at 1uM": 6.58}
{"smiles": "CSc1nc2nccc(/C=C\\c3ccccc3)n2n1", "hERG current change (%, negative = inhibition) at 1uM": -5.9}
{"smiles": "CSc1cc(C)nc(NC(C)=O)n1", "hERG current change (%, negative = inhibition) at 1uM": 13.1}
{"smiles": "O=C(Cc1ccc(Cl)cc1)NNC(=O)C1CC=CCC1C(=O)O", "note": "(stereo not drawn)", "hERG current change (%, negative = inhibition) at 1uM": 16.4}
{"smiles": "CN(C)c1cc(-c2ccc(Cl)cc2Cl)oc(=O)c1Cl", "hERG current change (%, negative = inhibition) at 1uM": 8.27}
{"smiles": "Cc1cccc(NC(=O)C2CC3CCC2C3)c1C", "note": "(stereo not drawn)", "hERG current change (%, negative = inhibition) at 1uM": 11.7}
{"smiles": "Cc1ccc(NC(=O)c2ccc(=O)[nH]n2)cc1S(=O)(=O)Nc1ccccc1Cl", "hERG current change (%, negative = inhibition) at 1uM": 13.8}
{"smiles": "O=C1COc2ccc(C(=O)CSc3nnc(Cc4ccccc4)o3)cc2N1", "hERG current change (%, negative = inhibition) at 1uM": 12.3}
{"smiles": "O=C(Sc1ccc(Cl)cc1)c1cccc(Cn2cc(C(F)(F)F)ccc2=O)c1", "hERG current change (%, negative = inhibition) at 1uM": 8.69}
{"smiles": "Cc1c(NC(=O)CSc2ccc3ccccc3n2)c(=O)n(-c2ccccc2)n1C", "hERG current change (%, negative = inhibition) at 1uM": 2.24}
{"smiles": "CCOC(=O)N1CCN(S(=O)(=O)c2cc([N+](=O)[O-])ccc2C)CC1", "hERG current change (%, negative = inhibition) at 1uM": 7.31}
{"smiles": "Cc1ccc(Cc2cnc(NC(=O)/C(C#N)=C/c3ccc(-c4cccc([N+](=O)[O-])c4)o3)s2)cc1", "hERG current change (%, negative = inhibition) at 1uM": 8.41}
